Sequences with one replicate were seen in a single cluster, so their values are uncertain.

This data set has as its system ATP. The data set can be described thus: switch fluorescence ratio, 500 uM ATP over buffer (Cy3 cluster intensity, sum of 5 cycles each) (fold (ratio)); higher = stronger signal-on switching upon ATP binding; sequences stand for … in TCGTCGGCAGCGTCAGATGTGTATAAGAGACAGTTTTTTTTTTTTTTTTTTTTTTTTT…TC. As to conditions: aptamer strand: ATP DNA aptamer (quencher-CACCTGGGGGAGTATTGCGGAGGAAGG + anchor), 100 nM annealed; ATP concentration: 500 uM; one replicate. In a few lines:
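Exposure to 500 uM ATP lasted 15 min at 22 °C before imaging, and a selection-buffer image was taken beforehand, for Cy3-labelled switching-strand clusters on a modified Illumina MiSeq flow-cell annealed to 100 nM quencher-labelled ATP aptamer. Five buffer/ATP cycles were run with NaOH stripping and re-annealing between them. The fluorescence ratio per cluster is summed target-cycle over summed buffer-cycle Cy3 intensity, averaged per switch-domain sequence. Clusters outside 100-1000 RFU were excluded.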

For the sequence ATTACCTAT, the switch fluorescence ratio stood at 1.03. As for GACCGTTTGC, the figure is 1.08. For AATTTCCAGA, the switch fluorescence ratio stood at 0.955. As for AGTCACGAGA, the figure is 1.02. AGCACATGTT: the switch fluorescence ratio was determined as 1.

Consider CAGAGAAGTG, for which the switch fluorescence ratio was 0.97. For TGTCATACCT, the switch fluorescence ratio worked out at 1.31. With TCATAAGAT, the switch fluorescence ratio is 0.999. To CATAGTTCAG belongs 0.989; to AATAACGGT, 0.997. To CCAATGGGGT belongs 1.04; to AATGTCACGA, 1.04; to TTAGTTCGCT, 0.996. GGATACTGCT: the switch fluorescence ratio worked out at 0.993. As for GTCCGAGATG, the figure is 1.07; as for ATGGGTGCAT, 1.02.

For AAGTTTCGTA, the switch fluorescence ratio is 0.977. As for TAAGATCTCA, the figure is 1.02. To GGCTCGTTTT belongs 0.997; to CGTTAAAGGC, 1.07. To CCGACGAGGG belongs 2.91; to TAAGGCGTTT, 1.02.

For the sequence GATTTTTGAT, the switch fluorescence ratio was found to be 0.987.

For GAATCTTCAT, the switch fluorescence ratio stood at 1.01. As for TCTCACGATC, the figure is 1.28; as for TGCCACTATT, 0.976. As for AGAAGTTTT, the figure is 0.999; as for GGTAACTAGA, 1. To GGCCGCCAGC belongs 1.03; to TTGCATGTAT, 0.99. On to GGGCCGCTGT, for which the switch fluorescence ratio amounted to 0.998. As for TGATGTAAGA, the figure is 0.965. Regarding CAGGCCAAAT, the switch fluorescence ratio amounted to 1.28. To AAATGATCCT belongs 1.04.

As for CTGGGACGCT, the switch fluorescence ratio worked out at 1.04.

Take GGATGCCGAA: the switch fluorescence ratio was found to be 0.966. GTTTACTTTG: the switch fluorescence ratio was found to be 1.08. As for GATGCCTATC, the figure is 1.02. To TGGACCACTT belongs 1.01; to CTAGAGCTGT, 1.1. As for TCTGCCCGGT, the figure is 1.1. On to GCCATGTCTG, for which the switch fluorescence ratio turned out to be 0.986. To GTTTGCACCT belongs 1.09; to GGGCCTTTT, 0.958. To CAGCTGTCGA belongs 1.03; to GCACCATCCG, 1.16; to CGTTCTTGAT, 0.944. For the sequence ATGATGCGGT, the switch fluorescence ratio amounted to 1.02.

For the sequence GCTGCAGCGT, the switch fluorescence ratio came out at 1. To TCGGCGCACG belongs 0.967; to TTACATTCCA, 1.05; to ATATTTGAGG, 1.03. To ACGGGAATCG belongs 1.01; to AGGGGTACCG, 0.965; to ATCTAAGTTG, 0.998.

On to GAATATTAGT, for which the switch fluorescence ratio stood at 1. To ATTCCATTGC belongs 1.04. To AACTAAAGAG belongs 0.97; to TAAACTTTGC, 1.38; to TTGCTGACTG, 0.986. As for GCTGGAATCT, the figure is 1.02. For the sequence ATACTCTCAA, the switch fluorescence ratio amounted to 1.02.

With CGAATGTAAG, the switch fluorescence ratio stood at 0.993. As for ATCGATCGAC, the figure is 1.03; as for TATGATTGAC, 1.06. To TTGCGTCTGT belongs 1.03; to GTGTCCGATA, 1.04; to GACGACTCTA, 1.51. As for TAACCGTAA, the figure is 1.31; as for AGAGTACAGC, 1.13. TGAATTCGTT: the switch fluorescence ratio was 1.03.

As to CATAGGGCTG, the switch fluorescence ratio was 0.963. To TACGCGGCCG belongs 1.13.

Consider TTCGTTTCAG, for which the switch fluorescence ratio was 1.01. To TAGCTGCGGG belongs 1.02; to GCTCATGGGG, 0.986; to GTCGTCACTT, 1.02. To CTCGTTGGAG belongs 0.979. In the case of CATGGGTCCG, the switch fluorescence ratio was 0.986.

Source of the values: the supplement of paper PMC10126150.
